No constants are given. Whether binding was seen depends on the method and setting. In cells and extracts the contact can be indirect. Some binding calls cover weakened binding; strength is not graded here. For some of these results: Sequences can lack the tags named with a protein.
Experiments:
RFP-Mff TM = target: T1, RFP-Mff TM (UniProt Q9GZY8); experiment: co-IP; RFP-Trap Agarose beads on whole cell lysates of transfected HEK293 cells, immunoblot
T1 sequence: VMYSITVAFWLLNSWLWF

Chains of the proteins cited; added tags and fusions are not shown. Lines headed by an entry give the natural chain unless they say otherwise; changes in a name come on top. A line that says so, or that is headed by a name, gives the form on record, which may keep a tag or linker. Residues count along the entry.
UniProt O00429: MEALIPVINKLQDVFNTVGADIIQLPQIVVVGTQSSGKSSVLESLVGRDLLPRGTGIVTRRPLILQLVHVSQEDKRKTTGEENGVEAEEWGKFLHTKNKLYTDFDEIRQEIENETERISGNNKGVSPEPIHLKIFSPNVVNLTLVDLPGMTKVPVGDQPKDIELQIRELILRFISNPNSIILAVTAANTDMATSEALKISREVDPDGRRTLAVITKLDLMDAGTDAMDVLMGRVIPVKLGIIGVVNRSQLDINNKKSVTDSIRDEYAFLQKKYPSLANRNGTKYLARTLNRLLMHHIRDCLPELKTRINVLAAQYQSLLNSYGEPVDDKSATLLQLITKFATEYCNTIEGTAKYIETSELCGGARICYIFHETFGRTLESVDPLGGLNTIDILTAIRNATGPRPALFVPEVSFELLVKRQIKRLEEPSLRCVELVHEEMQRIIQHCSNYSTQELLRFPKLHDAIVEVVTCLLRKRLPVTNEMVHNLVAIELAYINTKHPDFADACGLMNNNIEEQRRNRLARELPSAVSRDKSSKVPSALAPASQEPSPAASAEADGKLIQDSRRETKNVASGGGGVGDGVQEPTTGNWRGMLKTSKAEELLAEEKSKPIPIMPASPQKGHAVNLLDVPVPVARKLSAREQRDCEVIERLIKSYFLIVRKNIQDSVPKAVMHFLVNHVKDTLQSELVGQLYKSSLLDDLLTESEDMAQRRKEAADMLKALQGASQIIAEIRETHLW
UniProt Q07817: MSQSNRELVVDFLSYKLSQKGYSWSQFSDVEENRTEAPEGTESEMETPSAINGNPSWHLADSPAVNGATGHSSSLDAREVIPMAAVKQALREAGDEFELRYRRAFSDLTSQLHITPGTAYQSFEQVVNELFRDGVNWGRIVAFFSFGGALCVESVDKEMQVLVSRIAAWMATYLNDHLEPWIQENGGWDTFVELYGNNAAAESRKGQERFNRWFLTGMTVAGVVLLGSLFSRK
Bcl-xL ΔC7 deletion mutant-YFP: residues 1-226 of Q07817
Bcl-xL ΔC deletion mutant-YFP: residues 1-211 of Q07817
Bcl-xL M2 (mutant)-YFP (Q07817-1, form named): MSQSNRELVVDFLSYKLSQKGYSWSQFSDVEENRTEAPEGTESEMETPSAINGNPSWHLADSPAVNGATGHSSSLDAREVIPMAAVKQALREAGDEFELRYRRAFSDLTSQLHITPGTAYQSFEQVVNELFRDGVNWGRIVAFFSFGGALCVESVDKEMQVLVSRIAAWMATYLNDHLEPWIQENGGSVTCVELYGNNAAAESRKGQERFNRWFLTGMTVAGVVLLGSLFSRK

GST-Mff = target: T2, GST-Mff (UniProt Q9GZY8); experiment: pull-down; GST-pulldown (glutathione-sepharose 4B beads) on whole cell lysates of HEK293 cells expressing GST-tagged Mff, endogenous partner immunoblotted; also with Bcl-xL siRNA or Drp1 siRNA
T2 sequence: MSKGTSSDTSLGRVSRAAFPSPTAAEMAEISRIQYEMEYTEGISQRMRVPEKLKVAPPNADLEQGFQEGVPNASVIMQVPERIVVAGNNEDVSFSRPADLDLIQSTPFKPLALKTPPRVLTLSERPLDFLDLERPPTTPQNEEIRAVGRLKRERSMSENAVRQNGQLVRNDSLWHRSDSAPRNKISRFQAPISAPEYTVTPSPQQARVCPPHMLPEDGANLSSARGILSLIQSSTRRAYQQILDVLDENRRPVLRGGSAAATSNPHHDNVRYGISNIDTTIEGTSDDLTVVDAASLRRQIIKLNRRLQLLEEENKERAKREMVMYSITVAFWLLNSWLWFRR

[1] = target: T3, GST-Mff ΔC deletion mutant (UniProt Q9GZY8); experiment: as above
T3 sequence: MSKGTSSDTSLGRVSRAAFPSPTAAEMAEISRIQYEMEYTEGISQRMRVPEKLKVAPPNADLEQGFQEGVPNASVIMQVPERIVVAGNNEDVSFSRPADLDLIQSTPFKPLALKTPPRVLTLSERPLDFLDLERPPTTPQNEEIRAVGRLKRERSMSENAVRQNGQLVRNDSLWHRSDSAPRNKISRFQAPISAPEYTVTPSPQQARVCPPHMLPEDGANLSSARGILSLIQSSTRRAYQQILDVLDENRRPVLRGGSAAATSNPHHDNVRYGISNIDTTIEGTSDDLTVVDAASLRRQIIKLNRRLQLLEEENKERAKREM

GST-Mff ΔN50 = target: T4, GST-Mff ΔN50 (UniProt Q9GZY8); experiment: as above
T4 sequence: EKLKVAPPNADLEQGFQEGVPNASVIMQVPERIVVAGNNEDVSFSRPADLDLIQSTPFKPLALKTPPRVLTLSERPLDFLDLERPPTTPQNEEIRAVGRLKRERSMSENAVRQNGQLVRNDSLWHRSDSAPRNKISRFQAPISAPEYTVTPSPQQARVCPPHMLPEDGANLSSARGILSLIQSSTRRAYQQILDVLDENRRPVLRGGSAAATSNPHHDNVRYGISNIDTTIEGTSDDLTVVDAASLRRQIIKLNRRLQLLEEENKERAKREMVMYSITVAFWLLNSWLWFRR

GST-Mff ΔRR = target: T5, GST-Mff ΔRR (UniProt Q9GZY8); experiment: as above
T5 sequence: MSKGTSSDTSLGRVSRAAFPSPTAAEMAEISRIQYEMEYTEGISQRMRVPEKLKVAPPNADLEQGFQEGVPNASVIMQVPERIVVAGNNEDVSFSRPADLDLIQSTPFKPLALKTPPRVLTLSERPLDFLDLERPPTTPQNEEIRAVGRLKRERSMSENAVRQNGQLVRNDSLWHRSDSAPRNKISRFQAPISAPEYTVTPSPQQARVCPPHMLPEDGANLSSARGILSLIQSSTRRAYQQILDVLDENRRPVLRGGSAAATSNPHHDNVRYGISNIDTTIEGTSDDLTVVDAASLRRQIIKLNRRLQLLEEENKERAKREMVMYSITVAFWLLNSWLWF

YFP-Drp1 WT = YFP-Drp1 WT (UniProt O00429); experiment: co-IP; YFP-Trap (GFP-Trap-A beads) on whole cell lysates of transfected HEK293 cells, bound proteins immunoblotted; also with SENP3 overexpression or SENP3 siRNA, Mff siRNA or Flag-Mff overexpression
[2] = target: endogenous Drp1 (human (endogenous in HEK293)) (UniProt O00429); experiment: co-IP; endogenous proteins: whole cell lysates of HEK293 cells incubated overnight with an Mff, Bcl-xL or Drp1 antibody pre-conjugated to protein-A beads; cells untreated, after OGD 2 h, after OGD plus 24 h reoxygenation, with SENP3 siRNA
[3] = target: T6, endogenous Mff (human (endogenous in HEK293)) (UniProt Q9GZY8); experiment: as above
T6 sequence: T2 sequence

Bcl-xL M2 (mutant)-YFP = Bcl-xL M2 (mutant)-YFP (UniProt Q07817); experiment: co-IP; YFP-Trap (GFP-Trap-A beads) on whole cell lysates of transfected HEK293 cells, bound proteins immunoblotted; also with SENP3 overexpression or SENP3 siRNA, Mff siRNA or Flag-Mff overexpression
[4] = target: endogenous Bcl-xL (human (endogenous in HEK293)) (UniProt Q07817); experiment: co-IP; endogenous proteins: whole cell lysates of HEK293 cells incubated overnight with an Mff, Bcl-xL or Drp1 antibody pre-conjugated to protein-A beads; cells untreated, after OGD 2 h, after OGD plus 24 h reoxygenation, with SENP3 siRNA
[5] = target: Bcl-xL ΔC deletion mutant-YFP (UniProt Q07817); experiment: co-IP; YFP-Trap (GFP-Trap-A beads) on whole cell lysates of transfected HEK293 cells, bound proteins immunoblotted; also with SENP3 overexpression or SENP3 siRNA, Mff siRNA or Flag-Mff overexpression
[6] = target: Bcl-xL ΔC7 deletion mutant-YFP (UniProt Q07817); experiment: as above
Bcl-xL-YFP = Bcl-xL-YFP (UniProt Q07817); experiment: as above
YFP-Bcl-xL TM = YFP-Bcl-xL TM (UniProt Q07817); experiment: as above

**Q.** Which binding (RFP-Mff TM) does the source give for “YFP-Bcl-xL TM (from UniProt Q07817-1 210-226) (domain or fragment)” here?
**A.** Its binding is “binds”.

**Q.** Which results are given for “endogenous Bcl-xL (from UniProt Q07817-1 1-233)”?
**A.** binding (RFP-Mff TM): binds; binding (GST-Mff): binds; binding [1]: no binding; binding (GST-Mff ΔN50): binds; binding (GST-Mff ΔRR): binds; binding (YFP-Drp1 WT): binds; binding [2]: binds; binding [3]: binds

**Q.** What does the source list for “endogenous Drp1 (from UniProt O00429 1-736)”?
**A.** binding (Bcl-xL M2 (mutant)-YFP): no binding; binding [4]: binds

B1: endogenous Mff (protein, UniProt Q9GZY8 1-342)
chain: T2 sequence
**Q.** For B1, which binding [5] is on record?
**A.** Its binding is “no binding”.

**Q.** And the binding [6]?
**A.** Its binding is “binds”.

**Q.** What about the binding (Bcl-xL-YFP) of the same molecule?
**A.** The binding was “binds”.

**Q.** What about the binding (YFP-Bcl-xL TM) of the same molecule?
**A.** The binding was “binds”.

**Q.** VMYSITVAFWLLNSWLWF (domain or fragment, UniProt Q9GZY8 323-340) [RFP-Mff TM] was tested. Which binding (YFP-Bcl-xL TM) did it give?
**A.** Its binding is “binds”.

Reference: article PMC8555761
